Assay results: US11939397B2, “ENTPD2 antibodies, combination therapies, and methods of using the antibodies and combination therapies” (Novartis AG, priority 2018, dated 2024)

T1: mouse ENTPD2 (Mus musculus, UniProt O55026)
T1 construct: residues 29-462 of mouse or rat ENTPD2 (the extracellular domain); mouse IgK signal peptide (N); made in house; host or cells: FreeStyle 293-F cells, transient
T1 sequence (O55026 29-462): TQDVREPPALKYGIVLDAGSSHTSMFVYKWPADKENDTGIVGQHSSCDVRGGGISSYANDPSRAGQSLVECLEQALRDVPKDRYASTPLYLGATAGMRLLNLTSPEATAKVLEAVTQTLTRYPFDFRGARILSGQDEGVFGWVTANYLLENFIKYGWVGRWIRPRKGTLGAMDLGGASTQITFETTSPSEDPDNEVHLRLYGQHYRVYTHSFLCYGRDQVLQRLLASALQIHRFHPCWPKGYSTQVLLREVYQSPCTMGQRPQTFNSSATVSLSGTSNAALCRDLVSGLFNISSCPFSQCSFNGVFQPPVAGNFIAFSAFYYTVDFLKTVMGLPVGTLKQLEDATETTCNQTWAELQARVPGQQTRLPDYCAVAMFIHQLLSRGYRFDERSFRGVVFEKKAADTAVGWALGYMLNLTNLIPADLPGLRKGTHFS

T2: human ENTPD2 (Homo sapiens, UniProt Q9Y5L3)
T2 construct: residues 29-462 of human or cyno ENTPD2 were cloned into expression vector; GP67 signal peptide (N); made in house; host or cells: High Five (Trichoplusia ni) insect cells, baculovirus
T2 sequence (Q9Y5L3 29-462): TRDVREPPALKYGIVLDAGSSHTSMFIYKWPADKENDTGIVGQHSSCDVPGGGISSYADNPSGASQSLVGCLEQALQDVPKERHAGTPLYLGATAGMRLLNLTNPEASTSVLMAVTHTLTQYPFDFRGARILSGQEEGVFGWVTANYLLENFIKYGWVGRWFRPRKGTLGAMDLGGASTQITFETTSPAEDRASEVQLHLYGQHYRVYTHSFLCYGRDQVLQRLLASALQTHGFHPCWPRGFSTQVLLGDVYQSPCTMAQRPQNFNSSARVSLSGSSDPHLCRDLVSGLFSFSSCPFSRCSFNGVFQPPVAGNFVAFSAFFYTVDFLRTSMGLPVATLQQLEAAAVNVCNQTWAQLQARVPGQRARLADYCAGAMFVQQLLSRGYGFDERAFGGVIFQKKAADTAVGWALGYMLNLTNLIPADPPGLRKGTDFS


Tests used:
mouse ENTPD2 = biological target: T1, mouse ENTPD2; experiment: Antibody specificity: binding to mouse ENTPD2; conditions: for Mouse ENTPD2 BIACore KD: SPR
Description: FACS screening: Specific binding of candidate antibodies to endogenously expressed ENTPD2 was assessed by flow cytometry. Cells were rinsed thoroughly with 1×PBS and treated with Accutase (Millipore #SCR005) to lift from growth plates and resuspended at approximately 1×10^5 cells/90 μL in 1×FACS buffer (2% FBS+0.1% NaN3 in PBS). In a 96-well U-bottom plate, 10 μL of 10× antibody solution in FACS buffer was pre-seeded and 90 μL of cell suspension was added. Cell were incubated for 30 minutes at 4° C., washed 1× with cold PBS and resuspended in 100 μL of 1:500 secondary antibody 1×FACS buffer (Allophycocyanin conjugated F(ab′)2 goat anti-human IgG, Fcγ specific; Jackson Immunoresearch, Cat #109-136-098). After additional incubation for 15 min at 4° C., cells were washed twice with PBS and resuspended in 100 μL of 1×FACS buffer with 4 μg/mL propidium iodide (Life Technologies, Cat #P3566). Geometric mean fluorescence intensity was calculated on live single cells using FlowJo software.
ELISA screening on directly coated antigen: Maxisorp™ 384-well plates (Thermo Nunc) were coated with 2 μg/ml of recombinant ENTPD2 diluted in PBS. After blocking with 2% BSA (bovine serum albumin) in PBS for 1 hr at room temperature, washing plates 3× with TBST (0.05% Tween 20 in TBS, Sigma Cat #T9039), primary antibodies in TBST and 2% BSA were added in a serial dilution and incubated for 1 hr at room temperature. Plates were washed again and bound antibodies were detected by incubation with anti-hFc gamma conjugated to horseradish peroxidase (HRP; Jackson ImmunoResearch, Cat #115-035-098, diluted 1:5000 in 1×TBST+2% BSA) for 1 hr at room temperature followed by washing with TBST and afterwards addition of SureBlue Peroxidase substrate (KPL, #52-00-03) substrate. After 15 min, absorbance at 650 nm was recorded and analyzed in GraphPad Prism6.
(§1) Biacore™ Screening: Affinity was measured by determining the kinetic rate constants using surface plasmon resonance (SPR) on a Biacore™ T200 or T100 with the T200 sensitivity upgrade instrument (Biacore™, GE Healthcare). Antibodies were captured on CM5 sensor chips (Biacore™, GE Healthcare) prepared with a mouse anti-human IgG Fc antibody (ThermoFisher catalogue #05-4200) amine coupled to the surface. […] ENTPD2 analytes were allowed to associate for 180 s and dissociate for up to 1800 s depending on the off-rate of the antibody at a flow rate of 30 μL/min. The running buffer was PBS pH 7.2 (prepared from a Corning 10× stock, cat #46-013-CM)+0.05% Tween 20. Regeneration was accomplished with 30 s injections of 3 or 4 M MgCl2 to remove all the captured antibody and remaining complex from the surface, after which fresh antibody was captured. The raw data were analyzed using Biacore™ T200 Evaluation Software version 1.0 and fit to a 1:1 binding model, with all parameters set to fit globally except for RI, which was set to fit locally.
Antibody specificity for mAb1-mAb10 was confirmed. […] Antibodies mAb8, mAb9, and mAb10 show weak affinity to mouse ENTPD2. None of the selected antibodies bind to rat ENTPD2.

[1] = test system: cynomologus (cyno) ENTPD2; experiment: Biacore SPR affinity to cyno ENTPD2 ECD; assay type: binding, cynomolgus monkey; conditions: 25° C.
Description: as §1

human ENTPD2 = biological target: T2, human ENTPD2; experiment: Biacore SPR affinity to human ENTPD2 ECD; assay type: binding; conditions: 25° C.
Description: as §1

affinity / cross-reactivity to mouse ENTPD2 (mouse ENTPD2)	Cyno ENTPD2 kd [1]	Human ENTPD2 ka (human ENTPD2)	Human ENTPD2 kd (human ENTPD2)	Mouse ENTPD2 BIACore KD (mouse ENTPD2)	Molecule	Cyno ENTPD2 ka [1]
weak affinity	0.021 s⁻¹	380000 M⁻¹ s⁻¹	0.0003 s⁻¹	–	mAb9: anti-human ENTPD2 antibody of Table 1; weak affinity to mouse ENTPD2 (antibody) heavy: QVQLVQSGAEVKKPGSSVKVSCKASGGTFDSYAVSWVRQAPGQGLEWMGRIVPWLGHTQYAQKFQGRVTITADESTSTAYMELSSLRSEDTAVYYCARESPGYRYSFDVWDQGTLVTVSSASTKGPSVFPLAPSSKSTSGGTAALGCLVKDYFPEPVTVSWNSGALTSGVHTFPAVLQSSGLYSLSSVVTVPSSSLGTQTYICNVNHKPSNTKVDKRV[human IgG1 Fc skipped] light: SYELTQPLSVSVALGQTARITCSGDAIGEKYVYWYQQKPGQAPVLVIYDDNNRPSGIPERFSGSNSGNTATLTISRAQAGDEADYYCASYDLQQARWVFGGGTKLTVLGQPKAAPSVTLFPPSSEELQANKATLVCLISDFYPGAVTVAWKADSSPVKAGVETTTPSKQSNNKYAASSYLSLTPEQWKSHRSYSCQVTHEGSTVEKTVAPTECS	990000 M⁻¹ s⁻¹
weak affinity	0.018 s⁻¹	340000 M⁻¹ s⁻¹	0.00024 s⁻¹	Weak	mAb10: anti-human ENTPD2 antibody of Table 1; weak affinity to mouse ENTPD2 (antibody) heavy: QVQLVQSGAEVKKPGSSVKVSCKASGGTFDSYAVSWVRQAPGQGLEWMGRIVPWLGFTRYAQKFQGRVTITADESTSTAYMELSSLRSEDTAVYYCARESPGYRYSFDVWDQGTLVTVSSASTKGPSVFPLAPSSKSTSGGTAALGCLVKDYFPEPVTVSWNSGALTSGVHTFPAVLQSSGLYSLSSVVTVPSSSLGTQTYICNVNHKPSNTKVDKRV[human IgG1 Fc skipped] light: SYELTQPLSVSVALGQTARITCSGDAIGEKYVYWYQQKPGQAPVLVIYDDNNRPSGIPERFSGSNSGNTATLTISRAQAGDEADYYCASYDLQQARWVFGGGTKLTVLGQPKAAPSVTLFPPSSEELQANKATLVCLISDFYPGAVTVAWKADSSPVKAGVETTTPSKQSNNKYAASSYLSLTPEQWKSHRSYSCQVTHEGSTVEKTVAPTECS	1.2e+06 M⁻¹ s⁻¹
weak affinity	0.024 s⁻¹	290000 M⁻¹ s⁻¹	0.00094 s⁻¹	Weak	mAb8: anti-human ENTPD2 antibody of Table 1; weak affinity to mouse ENTPD2 (antibody) heavy: QVQLQQSGPGLVKPSQTLSLTCAISGDSVSSSSAAWNWIRQSPSRGLEWLGRIYYRSKWYNDYAVSVKSRITINPDTSKNQFSLQLNSVTPEDTAVYYCARGSYVTSSYEGFDYWGQGTLVTVSSASTKGPSVFPLAPSSKSTSGGTAALGCLVKDYFPEPVTVSWNSGALTSGVHTFPAVLQSSGLYSLSSVVTVPSSSLGTQTYICNVNHKPSNTKVDKRV[human IgG1 Fc skipped] light: SYELTQPLSVSVALGQTARITCSGDNLPEKYAYWYQQKPGQAPVLVIYDDNKRPSGIPERFSGSNSGNTATLTISRAQAGDEADYYCQSYGKWGWTWVFGGGTKLTVLGQPKAAPSVTLFPPSSEELQANKATLVCLISDFYPGAVTVAWKADSSPVKAGVETTTPSKQSNNKYAASSYLSLTPEQWKSHRSYSCQVTHEGSTVEKTVAPTECS	300000 M⁻¹ s⁻¹
–	0.0012 s⁻¹	210000 M⁻¹ s⁻¹	0.00019 s⁻¹	No binding	mAb7: anti-human ENTPD2 antibody generated by humanization of mAb17 (antibody) heavy: QVQLVQSGAEVVKPGASVKISCKASGYTFTDYNMDWVKQAPGQRLEWIGDINPKYDISTYNQQFKGKATITVDKSASTAYMELSSLRSEDTAVYYCARRGFFLYYGINYYYFDVWGQGTLVTVSSASTKGPSVFPLAPSSKSTSGGTAALGCLVKDYFPEPVTVSWNSGALTSGVHTFPAVLQSSGLYSLSSVVTVPSSSLGTQTYICNVNHKPSNTKVDKRV[human IgG1 Fc skipped] light: EIVLTQSPATLSASPGEEITLSCSASSSVSYIHWYQQKPGQAPRLLIYSTSNLASGIPARFSGSGSGTFYTLTISSVEPEDAAVYYCHQWSSYPWTFGGGTKLEIKRTVAAPSVFIFPPSDEQLKSGTASVVCLLNNFYPREAKVQWKVDNALQSGNSQESVTEQDSKDSTYSLSSTLTLSKADYEKHKVYACEVTHQGLSSPVTKSFNRGEC	1.2e+06 M⁻¹ s⁻¹
–	0.0012 s⁻¹	110000 M⁻¹ s⁻¹	0.00018 s⁻¹	No binding	mAb2: anti-human ENTPD2 antibody generated by humanization of mAb17 (antibody) heavy: QVQLVQSGAEVVKPGASVKISCKASGYTFTDYNMDWVKQAPGQRLEWIGDINPKYDISTYNQQFKGKATITVDKSASTAYMELSSLRSEDTAVYYCARRGFFLYYGINYYYFDVWGQGTLVTVSSASTKGPSVFPLAPSSKSTSGGTAALGCLVKDYFPEPVTVSWNSGALTSGVHTFPAVLQSSGLYSLSSVVTVPSSSLGTQTYICNVNHKPSNTKVDKRV[human IgG1 Fc skipped] light: EIVLTQSPATLSASPGERITLSCSASSSVSYIHWYQQKPGQAPRLLIYSTSNLASGIPARFSGSGSGTFYTLTISSVEPEDAAVYYCHQWSSYPWTFGGGTKLEIKRTVAAPSVFIFPPSDEQLKSGTASVVCLLNNFYPREAKVQWKVDNALQSGNSQESVTEQDSKDSTYSLSSTLTLSKADYEKHKVYACEVTHQGLSSPVTKSFNRGEC	430000 M⁻¹ s⁻¹
